The series deals with ATP. As to the kind of experiment: switch fluorescence ratio, 500 uM ATP over buffer (Cy3 cluster intensity, sum of 5 cycles each) (fold (ratio)); higher = stronger signal-on switching upon ATP binding; sequences stand for … in TCGTCGGCAGCGTCAGATGTGTATAAGAGACAGTTTTTTTTTTTTTTTTTTTTTTTTT…TC. The note with it: aptamer strand: ATP DNA aptamer (quencher-CACCTGGGGGAGTATTGCGGAGGAAGG + anchor), 100 nM annealed; ATP concentration: 500 uM; one replicate. In short, it runs like this: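 Per cluster, summed Cy3 intensity from the target cycles was divided by that from the buffer cycles to give the fluorescence ratio, then averaged per switch-domain sequence. Clusters outside 100-1000 RFU were excluded. The Cy3-labelled switching-strand clusters, on a modified Illumina MiSeq flow-cell, were annealed to 100 nM quencher-labelled ATP aptamer and imaged in selection buffer, then after 15 min with 500 uM ATP at 22 °C, for five cycles with NaOH stripping and re-annealing between them.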

The source of these data is the supplement of paper PMC10126150.

Sequences with one replicate were seen in a single cluster, so their values are uncertain.
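Note: ATP exposure 15 min at 22 °C before imaging.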

As for ACCTGTGTCG, the switch fluorescence ratio was found to be 1.01. As to AGCAAATGAC, the switch fluorescence ratio turned out to be 2.79. Then GCACACGGTG, with 1.08. Take TTTTGGATC: the switch fluorescence ratio is 0.999.

Consider TGCTAATTTT, for which the switch fluorescence ratio amounted to 0.975. As for CATGGACTTG, the figure is 1.03; as for CGTGATTCCC, 1.1; as for ACGCTATTAA, 1.25. As for ATTACAAGAA, the switch fluorescence ratio turned out to be 1.02.

For AATCTGATTT, the switch fluorescence ratio was found to be 0.988.

With CGCGAAAAAC, the switch fluorescence ratio came to 1.04. As for CCAGTACCAT, the switch fluorescence ratio was determined as 0.94. Consider GAAGGGCGCA, for which the switch fluorescence ratio worked out at 0.992.

In the case of CAGGAATTGC, the switch fluorescence ratio was 1.03.

Turning to AGACAGCTAG, the switch fluorescence ratio was found to be 1.05. As for TTAAGGTCAG, the switch fluorescence ratio was found to be 0.995. Then CCGAGTTGC, with 2.11; and CTCCACCTAT, with 1.16.

For TGTATTCGCG, the switch fluorescence ratio was 0.992.

Turning to AAAGCGACGA, the switch fluorescence ratio was 1.22.

Regarding CGTAGTAGCG, the switch fluorescence ratio came to 1.02. Turning to GTCTTAAAGT, the switch fluorescence ratio was determined as 1.03. As to GAATGTTGTG, the switch fluorescence ratio is 1.02. As for GTCTAGTTAT, the figure is 0.962; as for CAATAAATTT, 0.97; as for GATGGGGTCG, 0.955. As for TGGTTGGCGA, the switch fluorescence ratio turned out to be 1.05. Regarding CAGTGAGCGA, the switch fluorescence ratio was determined as 1.08.

On to AAGGGAGGGT, for which the switch fluorescence ratio turned out to be 1. Take TTCTATTATT: the switch fluorescence ratio was found to be 1.01. As to CCGTAGAGCG, the switch fluorescence ratio came out at 1.1. As for CGGATCAGTA, the switch fluorescence ratio is 1.02.

On to TGTTACGATG, for which the switch fluorescence ratio amounted to 0.973.

For the sequence TTGCTATGGA, the switch fluorescence ratio amounted to 1.03. For the sequence GTTAAACGGG, the switch fluorescence ratio was determined as 1.06.

For TGCCATTTAG, the switch fluorescence ratio came out at 0.971. Then CGGCCTGTGA, with 1.05; and GCCCAAATAG, with 1.04; and AAAAGGGGCC, with 0.918. As to TCAGCTCCTA, the switch fluorescence ratio came out at 1.02.

TGCATTCTTG: the switch fluorescence ratio stood at 0.999.

On to CCGGCCAAAT, for which the switch fluorescence ratio amounted to 1.33.

Turning to TTACTGGGCC, the switch fluorescence ratio is 0.981. As for CAAGTCCTGT, the figure is 0.986; as for CGCTAGGCTC, 1.97; as for ACCTGCCAGT, 1.05. Turning to GGACTTAAAA, the switch fluorescence ratio is 0.963. CCGTCCTTTT: the switch fluorescence ratio was determined as 1.01. As for TAATGAGGAC, the figure is 0.937; as for GGCCGGCCGT, 0.977; as for AACAGGGATG, 1.04. For the sequence TCGCCGCGA, the switch fluorescence ratio is 1.06. As for ATGCCTAT, the figure is 1.37. Then CGACGTTATT, with 1.39; and AAAGAGGATG, with 1; and CATGGTTTAC, with 0.989. As for CTCAGTCCCC, the figure is 1.12. As to ACTACCACGG, the switch fluorescence ratio worked out at 2.44. Take CCGTGTGGGG: the switch fluorescence ratio was determined as 1.

In the case of TAAAATAGGT, the switch fluorescence ratio was 0.997. Then TTGACAGCG, with 1.04; and GATCTCTTAA, with 0.975; and CACCAAAGTC, with 0.928. Take ACAACCCAGC: the switch fluorescence ratio amounted to 1.15.

As to CTTGTCGGGA, the switch fluorescence ratio was determined as 1.02. As for CCCAGTGCGA, the figure is 1.93. Then ACCTTGTTT, with 1; and CAGACGGTCT, with 0.972. For ACGAGCTCAC, the switch fluorescence ratio is 1.26. Then GGTATCGACT, with 0.981; and AAATTTATTG, with 1.06; and TTAAGACGCC, with 1.02. As for TAGTGGACCG, the figure is 1.08.

Consider AGTACCAGTA, for which the switch fluorescence ratio turned out to be 1.05. Take GTATCAAGTG: the switch fluorescence ratio came to 0.951. Then AGCGGATGCC, with 0.967; and TTCCTTATCC, with 1.16; and AGACAGCGGT, with 0.959. As for CAAGGTCAAC, the figure is 1.06; as for GCGGGGCGCC, 1.02; as for GATTTGGCGT, 1.14. Then GTGCATAGGA, with 1.03. On to CAGGCACATC, for which the switch fluorescence ratio came out at 1.17. On to GCAGGGATCT, for which the switch fluorescence ratio is 1. Consider AGTTCTAAAT, for which the switch fluorescence ratio turned out to be 1.02. As for ACAAGGAGG, the figure is 0.996. Then TTGACTAGGA, with 1.02. As for GCTTAGTGCT, the figure is 0.991; as for TGGGTCC, 1.03; as for ATTTTTTGAT, 0.991. Consider CGTTATTAA, for which the switch fluorescence ratio was determined as 1.04. Then AATCTGTTA, with 0.982. With GGAATTCATG, the switch fluorescence ratio is 0.992. As for TTTTAACTGC, the figure is 1.02. Then TGTCGGGCGG, with 1.06; and GGATGGCAGC, with 0.988; and GAGGCAAAGG, with 1.23. Consider CTTTCTGTTA, for which the switch fluorescence ratio turned out to be 0.98. Turning to TACGACTCAC, the switch fluorescence ratio stood at 1.5. For the sequence ATGGTGGTTC, the switch fluorescence ratio came out at 1.01. CGGTGGTGG: the switch fluorescence ratio came out at 0.973. Turning to TTTCGCGCA, the switch fluorescence ratio turned out to be 1.07.

As to GTTTACCTT, the switch fluorescence ratio was 1.05. Then GAAAACCCTT, with 1.05; and TCCCCTGCCA, with 1.32; and TGTCTAGC, with 0.95.

Regarding CCCTCGCCGT, the switch fluorescence ratio is 1.05.

CCTTTTGATT: the switch fluorescence ratio worked out at 1.03.

Regarding GACGGCTGTT, the switch fluorescence ratio was 0.975. Then CGACTAGTCG, with 0.955; and ATTGGGACTA, with 1.03. As for TTCTAGCGCC, the switch fluorescence ratio amounted to 0.986. As for AAAACCGAAT, the figure is 1.02.

For the sequence GTGCGCGTTG, the switch fluorescence ratio is 1.03. As for CGGGTTGGTG, the figure is 1.01. For the sequence GCCACTTTTG, the switch fluorescence ratio came to 1.01.

As to TATTGACATA, the switch fluorescence ratio came to 1.06. As to TCAGTTAACC, the switch fluorescence ratio worked out at 1.03.

In the case of CTTTTACCTC, the switch fluorescence ratio was 1.04. As for CGACAGAGGG, the figure is 0.99.
